Measurements published in the supplement of paper PMC9334596.
Values joined by “and” are separate entries in the source; they are usually repeats but may differ in a detail not shown here. Identical values can stand only once. In all, about 5,300 compounds were measured (“PER2::LUC luminescence relative to vehicle control”: median about 0.96, highest 2% from about 1.3 on). Some of the results follow.

System: mPer2Luc MEF
Test: PER2::LUC luminescence relative to vehicle control (fold of vehicle); higher = higher PER2::LUC reporter signal
Conditions: 10 µM
Outline: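 Mouse embryonic fibroblasts carrying the mPer2Luc reporter were seeded at ~3000 cells per well in 384-well plates, 48 h before compounds from commercial libraries were added at 10 μM. Cells were grown in DMEM with 10% FBS at 37 °C and 5% CO2. Luminescence was read with the ONE-Glo luciferase assay system 24 h and 30 h after treatment, followed by an alamarBlue viability assay. The value is PER2::LUC luminescence as fold of vehicle control.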

SMILES	PER2::LUC luminescence (time after treatment 24 h)	PER2::LUC luminescence (time after treatment 30 h)
CC(=O)N(CC(O)CN(C(C)=O)c1c(I)c(C(=O)NCC(O)CO)c(I)c(C(=O)NCC(O)CO)c1I)c1c(I)c(C(=O)NCC(O)CO)c(I)c(C(=O)NCC(O)CO)c1I (centres undefined)	0.831	0.729
CN(C)Cc1ccc(S(=O)(=O)n2ccc(/C=C/C(=O)NO)c2)cc1	0.248 and 0.207	0.354 and 0.366
Nc1ncnc2n[nH]c(Nc3ccc(F)cc3)c12	0.948	0.946
CC[C@H](C)C[C@H](C)CCCCCCCCC(=O)N[C@H]1C[C@@H](O)[C@@H](NCCN)NC(=O)[C@@H]2[C@@H](O)CCN2C(=O)[C@H]([C@H](O)CCN)NC(=O)[C@H]([C@H](O)[C@@H](O)c2ccc(O)cc2)NC(=O)[C@@H]2C[C@@H](O)CN2C(=O)[C@H]([C@@H](C)O)NC1=O	1.06 and 0.951	1.08 and 1
c1ccc(CN(CC2=NCCN2)c2ccccc2)cc1	0.832 and 0.642	0.853 and 0.913
c1nc(CC2CCNCC2)c[nH]1	0.32	0.4
O=C(O)C1=CCCN(CCON=C(c2ccccc2)c2ccccc2)C1	0.849	0.974
CN(C)CC/C=C1/c2ccccc2COc2ccc(CC(=O)O)cc21	1.08	0.965
CCOc1ccc(Oc2ccc(OCc3cc(F)ccc3F)cc2)c(N)c1	1.03	0.887
COc1cc(/C=C/C(=O)N2CCCCCCC2)cc(OC)c1OC	0.996	1.1
C=CC(C)(C)c1cc(/C=C\C(=O)c2ccc(O)cc2)c(OC)cc1O	0.553	0.862
Nc1cc(F)ccc1NC(=O)/C=C/c1cnn(C/C=C/c2ccccc2)c1	0.683	0.649
Nc1nc(NC2CC2)c2ncn([C@H]3C=C[C@@H](CO)C3)c2n1	1.23 and 1.48	1.32 and 1.75
COc1cc(OC)c2c(=O)c(-c3ccc4c(c3)OCO4)coc2c1	1.07	1.31
O=C(COc1ccc(Cl)cc1)N1CCN(Cc2ccc3c(c2)OCO3)CC1	0.918 and 0.872	0.866 and 0.844
N[C@@H](Cc1ccc(O)cc1)C(=O)O	0.927	0.952
O=c1c(O)cc([C@H]2Oc3cc(O)cc(O)c3C[C@H]2O)cc2c([C@H]3Oc4cc(O)cc(O)c4C[C@H]3O)cc(O)c(O)c12	0.912	0.856
CN(Cc1cnc2nc(N)nc(N)c2n1)c1ccc(C(=O)N[C@@H](CCC(=O)O)C(=O)O)cc1	0.703 and 0.602 and 0.455	0.581 and 0.379 and 0.359
CCOc1ccc2nc3cc(N)ccc3c(N)c2c1	0.921 and 0.814	0.826 and 0.806
CCN(CC)CCNc1ccc(CO)c2sc3ccccc3c(=O)c12	0.27	0.659
CN(C)c1ccc(O)c2c1C[C@H]1C[C@H]3[C@H](N(C)C)C(O)=C(C(N)=O)C(=O)[C@@]3(O)C(O)=C1C2=O	1.08	1.22
CC(Cc1ccc(O)c(O)c1)(NN)C(=O)O (centres undefined)	1.21	0.964

SMILES	PER2::LUC luminescence (time after treatment 24 h)	PER2::LUC luminescence (time after treatment 30 h)
Cc1ccsc1/C=C/C1=NCCCN1C	0.972 and 0.495	1.04 and 0.879
CCCCCCCCCCCCCCCCOP(=O)([O-])OCC[N+](C)(C)C	0.8	0.989
C[N+](C)(C)CCOC(=O)CCC(=O)OCC[N+](C)(C)C	0.908	0.877
CSc1ccc(OCc2ncc([N+](=O)[O-])n2C)cc1	1.41	1.31
COc1cc(C(C)=O)ccc1O	1.08	1.05
CCN1CCc2nc(N)oc2CC1	0.941	0.924
COc1cc(C=CC(=O)O)cc(OC)c1O	0.896	0.883
CC(C)CCCC(C)C1CCC2C3=CCC4CC(O)CCC4(C)C3CCC21C (centres undefined)	0.933	0.934
C=CCn1c(=O)c2c(nc(-c3ccc(S(=O)(=O)O)cc3)n2C)n(C)c1=O	1.01	0.927
C[C@]12CC[C@@H]3c4ccc(OS(=O)(=O)O)cc4CC[C@H]3[C@@H]1CCC2=O	1.04	0.945 and 1.2
Cc1ncc(Cl)cc1NCc1ccc(C(=O)N[C@@H](CC2CCCC2)C(=O)NC2CC2)s1	0.921	0.823
COc1cc2c(CCNC(C)=O)c[nH]c2cc1Cl	0.891	0.993
CCCN(CCc1ccccc1)C1CCc2c(O)cccc2C1 (racemic)	1.02	0.864
COc1cccc(OC)c1C(=O)N[C@@H]1C(=O)N2[C@@H]1SC(C)(C)[C@@H]2C(=O)O	0.867	0.823
Cc1ccc(S(=O)(=O)NC(=O)NN2CCCCCC2)cc1	1.04	1.02
CC(C)(C)CC(C)(C)c1ccc(O)c(Cc2ccc(Cl)cc2Cl)c1	1.03	0.93
CN1CCN(c2c(F)cc3c(=O)c(C(=O)O)cn4c3c2OCN4C)CC1	1.04	1.03
CC1c2ccccc2CN1CC1=NCCN1 (centres undefined)	1.05	1.01
CCN(CC)CCOC(=O)C(c1ccccc1)c1ccccc1	0.791	0.827
OC(CCCN1CCCCC1)(c1ccccc1)c1ccccc1	0.74	0.919
CCCCCCCCCCCCc1ccc(S(=O)(=O)Nc2nncs2)cc1	1.09	0.954
CC(CCc1ccccn1)(CCc1ccccn1)C(=O)c1ccccc1	0.643	0.935

SMILES	PER2::LUC luminescence (time after treatment 24 h)	PER2::LUC luminescence (time after treatment 30 h)
C[C@H]1[C@H](C)CC[C@]2(C(=O)O)CC[C@]3(C)C(=CC[C@@H]4[C@@]5(C)C[C@@H](O)[C@H](O)[C@@](C)(CO)[C@@H]5CC[C@]43C)[C@H]12	1.02	0.996
CC[N+](CC)(CC)CC(=O)Nc1c(C)cccc1C	1.04	0.869
O=c1cc(-c2ccc(O)cc2)oc2c([C@@H]3O[C@H](CO)[C@@H](O)[C@H](O)[C@H]3O)c(O)cc(O)c12	0.934	0.884
CC(C)(N)C(=O)N[C@H](COCc1ccccc1)C(=O)N1CCC2(CC1)CN(S(C)(=O)=O)c1ccccc12	0.936	0.86
CCN(c1cc(C#CCN2CCOCC2)cc(C(=O)NCc2c(C)cc(C)[nH]c2=O)c1C)[C@H]1CC[C@H](N(C)CCOC)CC1	1.05	1.12
COc1cc(-c2ccc(=O)[nH]n2)ccc1OC(F)F	0.97	0.924
CC(=O)OC[C@@]1(O)C[C@@]23CC[C@@H]4c5ccoc5C=C[C@@]4(C)[C@@H]2CC[C@@H]1C3	1.02	0.958
CCCCC1(COC(=O)CCC(=O)O)C(=O)N(c2ccccc2)N(c2ccccc2)C1=O	0.826	1.02
COc1cc(NC(C)CCCN)c2ncccc2c1 (centres undefined)	0.857 and 0.712	0.94 and 0.92
CCCCNc1c(C(=O)OCC)c(C)nc2c1cnn2CC	0.905	1.02
CC(=O)CC/C=C(\C)CC/C=C(\C)CC/C=C(\C)CCC=C(C)C	1.1	0.997
OC[C@H]1O[C@@H](n2cnc3c(Nc4ccccc4)ncnc32)[C@H](O)[C@@H]1O	1.41	1.13
COc1ccc(-c2ccc3c(N4CCOCC4)nc(N4C[C@@H](C)O[C@@H](C)C4)nc3n2)cc1CO	0.334	0.522
Nc1ccc(CCNc2ncnc3c2ncn3C2OC(CO)C(O)C2O)cc1 (centres undefined)	0.951	0.857
COC1(C)CCC2OC2(C)CCC2C1CC2(C)C (centres undefined)	1.09	1.12
CC(=O)NCCc1ccc(O)c(-c2c(O)c(O)c3c(c2O)C(=O)c2c(cc(O)c(C(=O)O)c2C(=O)O)C3=O)c1	0.904	0.903
OC(CN1CCN(c2cccc(Cl)c2)CC1)C(c1ccccc1)c1ccccc1 (centres undefined)	0.994 and 0.787	0.901 and 0.845
CN(C)[C@@H]1C(O)=C(C(N)=O)C(=O)[C@@]2(O)C(O)=C3C(=O)c4c(O)cccc4[C@@](C)(O)[C@H]3[C@H](O)[C@@H]12	0.981	0.969
COc1cc(OC)c(/C=C/S(=O)(=O)Cc2ccc(OC)c(NCC(=O)O)c2)c(OC)c1	0.404	0.454
CSc1ccc2c(c1)N(CCC1CCCCN1C)c1ccccc1S2 (centres undefined)	0.715	0.673
CC(C)(Sc1ccc(CCN(CCCCC2CCCCC2)C(=O)NC2CCCCC2)cc1)C(=O)O	0.924	0.717
NC1C=CC=C(C(=O)O)C1 (centres undefined)	1.03	1.11

SMILES	PER2::LUC luminescence (time after treatment 24 h)	PER2::LUC luminescence (time after treatment 30 h)
COc1cc(O)c2c(=O)c(O)c(-c3ccccc3)oc2c1	0.99	1.06
Cl.N=C(N)NCCC[C@H](N)C(=O)O	0.889	0.877
CC/C(=C(/CC)c1ccc(O)cc1)c1ccc(O)cc1	1.01	0.953
CC1=C(/C=C/C(C)=C/C=C/C(C)=C\C(=O)O)C(C)(C)CCC1	1.75 and 1.62 and 1.8	1.89 and 1.79 and 1.52
Nc1nc(OCc2ccccc2)c2nc[nH]c2n1	1.06	0.951
COc1ccc(-c2cc(=O)c3c(OC(C)=O)cc(OC(C)=O)cc3o2)cc1	1.25	1.3
Cc1cc(-c2ccccc2)nnc1NCCN1CCOCC1	0.994 and 0.982	1.01 and 0.929
NC(N)=Nc1nc(CSCC/C(N)=N/S(N)(=O)=O)cs1	1.03	1.04
Cc1cc(C=C2SC(=O)N(c3ccccc3)C2=O)c(C)n1-c1cccnc1	0.124	0.131
C=CCO/N=C1\c2ccccc2-c2nc(C#N)c(C#N)nc21	0.778	0.699
CCN1CCN(Cc2ccc(-c3cc4c(N[C@H](C)c5ccccc5)ncnc4[nH]3)cc2)CC1	0.438	0.373
CCOC(=O)c1c(CSc2ccccc2)n(C)c2cc(Br)c(O)c(CN(C)C)c12	0.867	0.79
CON	1.02	0.914
COc1cc(N2CCC(N3CCN(C)CC3)CC2)ccc1Nc1ncnc(Nc2ccccc2S(=O)(=O)C(C)C)n1	0.431	0.437
CCN(CCO)CCCC(C)Nc1ccnc2cc(Cl)ccc12 (centres undefined)	0.753	0.699
Cc1nc(Nc2ncc(C(=O)Nc3c(C)cccc3Cl)s2)cc(N2CCN(CCO)CC2)n1	0.152 and 0.068	0.201 and 0.083
CC(/C=C/C(=O)NO)=C\[C@@H](C)C(=O)c1ccc(N(C)C)cc1	0.507	0.351
O=C(NC1CCN(Cc2ccccc2)CC1)c1ccc(I)cc1	0.949	0.984
CC(C)c1ccc2c(c1)c(SC(C)(C)C)c(CC(C)(C)C(=O)O)n2Cc1ccc(Cl)cc1	1.15 and 0.968	0.932 and 0.989
O=C1C=CC(=O)C2=C1C1c3ccccc3C2c2ccccc21	1.1	1.11
Cc1ccccc1-n1c([C@H](C)Nc2nc(N)nc3nc[nH]c23)nc2cccc(C)c2c1=O	0.801	0.66
